# Laboratory results taken from the supplement of paper PMC3334620.
# Whole data set: some 33,000 sequences, median “E-score (-0.5 to 0.5)” near -0.011, cut for the highest 2% near 0.28. The list shows a part of the results.
# Biological target: T1, Gcr1 (UniProt P07261)
# T1 sequence: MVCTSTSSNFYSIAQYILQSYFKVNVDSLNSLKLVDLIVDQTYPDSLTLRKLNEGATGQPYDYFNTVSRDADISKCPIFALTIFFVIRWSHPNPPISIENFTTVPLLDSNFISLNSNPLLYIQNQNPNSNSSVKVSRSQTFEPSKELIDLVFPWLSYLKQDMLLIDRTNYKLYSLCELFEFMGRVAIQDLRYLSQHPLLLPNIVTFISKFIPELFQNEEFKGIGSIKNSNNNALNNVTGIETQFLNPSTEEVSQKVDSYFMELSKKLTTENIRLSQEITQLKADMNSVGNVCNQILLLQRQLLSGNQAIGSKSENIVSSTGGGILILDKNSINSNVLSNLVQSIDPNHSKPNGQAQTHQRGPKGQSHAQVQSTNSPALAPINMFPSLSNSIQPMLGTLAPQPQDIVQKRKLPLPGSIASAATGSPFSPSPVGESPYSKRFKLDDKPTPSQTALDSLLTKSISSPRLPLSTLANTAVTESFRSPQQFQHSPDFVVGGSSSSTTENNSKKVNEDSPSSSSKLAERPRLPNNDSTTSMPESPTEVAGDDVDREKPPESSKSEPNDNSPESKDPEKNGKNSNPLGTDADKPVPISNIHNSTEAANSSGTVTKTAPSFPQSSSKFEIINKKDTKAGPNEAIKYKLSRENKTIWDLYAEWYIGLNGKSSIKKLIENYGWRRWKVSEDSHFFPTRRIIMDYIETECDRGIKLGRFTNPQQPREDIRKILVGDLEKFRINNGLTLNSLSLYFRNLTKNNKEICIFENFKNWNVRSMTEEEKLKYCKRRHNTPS
# Assay: PBM E-score (8-mer binding enrichment) (E-score (-0.5 to 0.5)); higher = stronger / more preferred TF binding; most listed sequences are background and not binding sites
# Details: protein concentration: 100 nM; construct: GST-full length
# Method in brief: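 Using PURExpress in vitro transcription/translation, GST-tagged yeast transcription factors were made in full-length or DNA-binding-domain form. These were applied at about 100-200 nM to double-stranded universal all-10-mer Agilent arrays, and bound protein was detected with fluorescent anti-GST. Scans were normalised with masliner before the Universal PBM Analysis Suite assigned E-scores to ungapped eight-base words pooled with their reverse complements.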
row,Sequence,PBM E-score
1,GGGAAGAC,-0.0109
2,AGGGATGG,-0.0985
3,CTGCACAG,-0.0453
4,AGACTCAG,-0.169
5,AGGACTGC,-0.272
6,CACCGATG,-0.0675
7,CCCGATTA,0.0767
8,TATTGGGA,-0.02
9,GGAGGACC,-0.115
10,AGATTTTA,0.0687
11,GCGAAGCA,-0.0597
12,CGCAGTTC,-0.0391
13,AGTAGCCC,0.0181
14,AGTGGCAT,0.193
15,CCACTAAG,0.374
16,CTTCGGGC,0.0503
17,GGTACTAC,-0.0297
18,ATTGACAG,-0.0534
19,GAAAGTCC,-0.203
20,AAATTAGA,0.207
21,CTCGTTGA,-0.0777
22,TCCAATCA,0.0477
23,CACCGGAA,0.266
24,CCATGTGA,-0.091
25,GTATCCAA,0.0892

row,Sequence,PBM E-score
1,GAATTCAC,0.109
2,CAGCCGCA,0.0862
3,GCAATCGA,-0.127
4,ATTACGCG,0.245
5,ACGTCATG,-0.141
6,CGGGTAAC,-0.0187
7,ACCAGCGA,-0.0696
8,ATCCTCAA,0.0657
9,ACCTTTGA,-0.051
10,ATGTAAAA,0.0943
11,CCTTTCCC,-0.246
12,ACACCTAC,-0.0335
13,ATCAAGGA,0.0581
14,ACCGACCA,-0.0984
15,AAAGATCA,0.0261
16,CCGTTGAC,-0.121
17,ACCGTCTC,-0.0748
18,ATATTCAT,0.0243
19,CATACCGG,0.134
20,ATGCCTTC,-0.154
21,AGGGAGCG,0.0432
22,AGCGGTTA,-0.0722
23,CTGGTGTA,-0.222
24,CCATCTCG,0.00173
25,ACGATTGG,-0.0386

row,Sequence,PBM E-score
1,GGCTGGCA,0.0387
2,AGAGAAGC,0.084
3,AGTACTAC,-0.0858
4,GCTCTACA,-0.00164
5,ATGGATTG,-0.219
6,CTCTTATC,0.121
7,CTTATCAA,0.188
8,CAAGGTAA,0.0839
9,AAAATCAG,0.123
10,CTAAAAAA,0.167
11,ATGCAAAT,0.137
12,ATGAGTGC,-0.178
13,GATTTTAA,0.0455
14,ACAACAGG,-0.0974
15,ATTCATAC,0.0931
16,AACCATCA,-0.149
17,CCCGTGAC,-0.0432
18,AATCTCCT,-0.0108
19,AGGCGACG,0.0988
20,GGGGACCC,0.291
21,ATGGAGAG,-0.197
22,CGAGGCCA,-0.135
23,CATAGCTA,-0.095
24,ACTATATC,0.0223
25,GTCGGATA,0.0266

row,Sequence,PBM E-score
1,AGCGGAGA,-0.0664
2,AGTGTAAG,-0.146
3,CCCTAAGG,-0.13
4,ACAAGGGC,-0.134
5,CGCGGAAC,0.0423
6,ACAGCCAA,0.0234
7,GGCGACAA,0.171
8,CAGGGCGC,0.251
9,GATTGCGC,-0.13
10,TCAGTCAA,-0.149
11,AGAAGTAG,0.206
12,CAGTTGTA,0.143
13,CGTCAATC,-0.00892
14,ATATCCCA,0.116
15,ACAGGCCA,-0.156
16,ACTGGTTA,0.0916
17,ACTTTAAC,-0.0262
18,ATTTTGGC,0.116
19,ATCGTGTG,0.0912
20,CTGTTGAA,0.0369
21,AGGTTGGA,-0.118
22,CTTTCCTA,-0.00108
23,CAACGTTC,-0.105
24,ATTTCACC,0.0373
25,GTACAAAA,-0.0647

row,Sequence,PBM E-score
1,TACCCCGA,-0.036
2,ACTCAAGG,-0.0471
3,CCATGAGC,-0.0516
4,ATGTGTTG,0.102
5,CTCCGAAC,-0.0608
6,CATACAAG,-0.0418
7,CCGGAAAC,0.247
8,GGTCAGAA,-0.139
9,GGAATTAA,0.0903
10,GACAAGCC,-0.302
11,CGTCGACA,-0.00153
12,ACCCTGCT,-0.0756
13,ACTCTCAG,0.0147
14,ACATAGTC,-0.105
15,AGAAAGTC,-0.12
16,ATAAATCG,0.027
17,GAGTCGAC,-0.0281
18,AACCCGCA,-0.00106
19,AGGCTTGG,0.0323
20,CTACCAAA,0.181
21,AGAACACT,-0.0753
22,GCGTCATA,0.0508
23,AAGAGTGA,-0.015
24,TCTCCAGA,0.00027
25,CGAGTGAG,-0.284

row,Sequence,PBM E-score
1,GTCTTCGA,0.0124
2,ACCTGTGC,-0.03
3,GGTTGCTA,0.242
4,ACTCAGCA,-0.146
5,AGGTCAAA,-0.156
6,CTCGTCGC,-0.28
7,CTCCCAAC,0.00879
8,ATAGCGAG,-0.134
9,GACAGGGC,-0.168
10,GACTGGGA,-0.076
11,ATAGTCTG,-0.114
12,CGTATCTC,0.0698
13,ATCGTGGG,0.211
14,AGCCCGAT,0.112
15,TGTCCCAA,0.0392
16,TCGTCTAA,0.112
17,CCGGGATC,0.268
18,AGTGCGAG,-0.0808
19,GACTCCTC,0.0371
20,AGAGGCCA,-0.0651
21,AATGCATA,-0.0822
22,AATAAAGA,0.0765
23,ACAATAGG,0.105
24,ACCAGAGG,0.00389
25,AGTTAGCA,0.252

row,Sequence,PBM E-score
1,ACTATACG,-0.0201
2,ATAGGCAC,0.112
3,AGCGGTAA,0.0329
4,ACGAAAAT,0.00347
5,GCAAAGAA,0.00261
6,AAAAATTT,-0.0275
7,ATGAACAC,0.0906
8,GTGAAGGA,-0.0433
9,CAAACCGA,-0.283
10,CACAGCCC,-0.232
11,ACTTCAAG,-0.0164
12,ACTGTCTA,-0.076
13,ACGTATGG,0.0374
14,GAGCGAGC,0.0568
15,AGGGCAAG,-0.102
16,ATACGATG,0.251
17,GCTTCGCA,0.181
18,AACAGGGG,-0.0549
19,AGCTTATC,-0.129
20,CGAGTGCA,-0.147
21,CGGCTGAG,0.0279
22,CTCCCGAG,0.00855
